# Measurements from PubChem BioAssay AID624330 (Southern Research Specialized Biocontainment Screening …, 2012).
# “And” between values parts separate entries of the source, which are not always exact repeats. Identical values can stand only once. In all, about 340,000 compounds went through this assay and about 2,100 (0.62%) were called active. The inconclusive results got no clear call from the source; some entries with a clear call stand among them for comparison.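 The calls were made as follows: active = first-screen hits whose inhibition reached a set limit at any dose in the follow-up dose series; inconclusive = inhibition above the set first-screen limit but never retested; inactive = the rest.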 Square brackets hold non-standard residues; d marks the D form. Peptide text beside a SMILES is read from it. * marks the point of attachment. ξ: configuration not given here. Cbz = O=C(OCc1ccccc1)*; ξP = O=C(O)C1CCCN1
# Biological target: Rac GTPase-activating protein 1 (Homo sapiens) (UniProt Q9H0H5)
# Assay: blockers of MgcRacGAP-driven Rac1 GTP hydrolysis – biochemical, ADP Hunter fluorescence, primary and confirmatory, confirmation (AID 624330);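 also: fluorescence reports GDP produced by GAP-driven GTP hydrolysis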
# Details: MgcRacGAP-stimulated Rac1 GTP hydrolysis, at 30 µM, stronger effect = higher value, GST-tagged Rac1 F28L mutant substrate
# UniProt Q9H0H5, sequence (Q9H0H5 whole entry, looked up): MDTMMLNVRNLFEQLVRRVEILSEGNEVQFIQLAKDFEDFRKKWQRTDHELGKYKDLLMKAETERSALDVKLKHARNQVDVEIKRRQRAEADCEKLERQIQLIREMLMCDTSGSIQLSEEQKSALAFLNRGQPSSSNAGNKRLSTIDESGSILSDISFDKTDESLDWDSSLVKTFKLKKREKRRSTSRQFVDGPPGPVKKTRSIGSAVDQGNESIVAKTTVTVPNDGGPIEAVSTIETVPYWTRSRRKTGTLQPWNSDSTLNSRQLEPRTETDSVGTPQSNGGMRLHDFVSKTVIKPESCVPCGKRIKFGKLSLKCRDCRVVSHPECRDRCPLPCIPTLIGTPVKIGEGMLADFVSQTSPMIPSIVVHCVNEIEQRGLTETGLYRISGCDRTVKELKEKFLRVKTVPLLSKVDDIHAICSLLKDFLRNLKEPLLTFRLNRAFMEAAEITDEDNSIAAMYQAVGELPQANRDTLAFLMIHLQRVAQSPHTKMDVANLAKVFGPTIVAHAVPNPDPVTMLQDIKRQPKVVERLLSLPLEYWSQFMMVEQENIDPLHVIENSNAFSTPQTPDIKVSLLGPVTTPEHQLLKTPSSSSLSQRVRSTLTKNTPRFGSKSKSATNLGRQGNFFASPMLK
row,Compound,inhibition
1,CN1CCc2cccc3c2[C@H]1Cc1ccc(O)c(O)c1-3,inconclusive: 44.3% and inconclusive: 32.8%
2,Cc1ccccc1/C(N)=N/OC(=O)N1c2ccccc2Sc2ccccc21,inconclusive: 75.9%
3,COc1ccc(CNCCNC(=O)c2cccs2)cc1OC,inconclusive: 33.9%
4,O=[N+]([O-])c1ccc(N=Nc2ccc(O)cc2O)cc1,inactive: 7.64%
5,O=c1cc(-c2ccc(O)c(O)c2)oc2cc(O)cc(O)c12,inconclusive: 62.3%
6,Nc1ccc(-c2nc3ccc(N)cc3[nH]2)cc1,inconclusive: 111%
7,Oc1ccc(C2=NNC(=NCc3ccc4c(c3)OCO4)SC2)c(O)c1,inconclusive: 33.6%
8,O=C(Nc1ccccc1)c1nnsc1S(=O)c1ccc(Cl)cc1 (stereo not given),inconclusive: 40.4%
9,O=C(c1ccccc1)c1ccc2nc(-c3ccco3)c(-c3ccco3)nc2c1,inactive: 25.8%
10,Oc1ccc(-c2csc(Nc3ncccn3)n2)c(O)c1,inconclusive: 33.2%
11,Cc1ccc(Cl)cc1NC(=S)N1CCC(c2ccccc2)C1 (stereo not given),inactive: 7.04%
12,CCc1ccc(NC(=O)C2=CC=CN3CCS(=O)(=O)N=C23)cc1,inactive: 7.78%
13,O=C(c1cccc(F)c1)N1CCN(Cc2ccc3c(c2)OCO3)CC1,inconclusive: 35.8%
14,O=C(Nc1ccc(O)cc1)c1ccc(NC(=O)C2CCCO2)cc1 (stereo not given),inconclusive: 120%
15,Nc1ccn(CCCN2CCN(C(=O)C3CC3)CC2)c(=O)n1,inactive: 15.1%
16,COC(=O)CNC(=O)C1CCCN1C(=O)CNC(=O)OCc1ccccc1 (stereo not drawn) (Cbz-Gly-[ξP]-Gly-OMe),inactive: 7.71%
17,COc1cc(OC)c(OC)cc1CN(C)CCc1ccccn1,inconclusive: 34%
18,Cc1ccc(C=Nc2ccc(N(C)C)cc2)o1,inconclusive: 34.3%
19,Cc1sc2ncn(CC(=O)N3CCN(c4ccccc4F)CC3)c(=O)c2c1S(=O)(=O)N1CCOCC1,inactive: 2.91%
20,COc1cccc(OC)c1C(=O)N1CCN(Cc2ccccc2F)CC1,inconclusive: 32%
21,CCn1c(=O)c2c3c(sc2n(C)c1=O)CCC3,inactive: 10.3%
22,NC(=S)N/N=C/c1cn(CCC(=O)O)nc1-c1cccc(Br)c1,inactive: 12.2%
23,CCOc1ccc(-c2nnc(-c3ccccc3)n2-c2ccccc2)cc1,inactive: 1.23%

row,Compound,inhibition
1,COc1ccc(OC(C)C(=O)N2CCN(c3ccccn3)CC2)cc1 (stereo not given),inactive: -1.84%
2,O=C(CSc1nc2ccccc2o1)N/N=C/c1ccc(O)c(O)c1,inconclusive: 67.4%
3,Cc1cc(=O)oc2c3c(cc(OCC(=O)NC(Cc4ccc(Cl)cc4)C(=O)O)c12)OC(C)(C)CC3 (stereo not given),inactive: 6.3%
4,CC(=O)NCCc1c[nH]c2ccc(O)cc12,inconclusive: 52.8%
5,CC(=O)Oc1ccc(C2=Cc3ccc(OC(C)=O)cc3OC2C)cc1 (stereo not given),inconclusive: 32.2%
6,CCOc1ccc(C(=O)Nc2cc(-c3nc4ccccc4[nH]3)ccc2Cl)cc1[N+](=O)[O-],inconclusive: 35.4%
7,Nc1ccc(-c2sc(N)nc2-c2ccccc2)cc1,inconclusive: 88.7%
8,COc1ccc(C)cc1NC(=O)C(=O)N/N=C(\C)CC(=O)Nc1cccnc1,inactive: -2.35%
9,CCC(C)N1CCN(S(=O)(=O)c2ccc3ccccc3c2)CC1 (stereo not given),inconclusive: 32.3%
10,O=C(COC(=O)c1c(F)cccc1Cl)NC(=O)Nc1ccc2c(c1)OCCO2,inactive: 0.21%
11,CSCC[C@H](NC(=O)OC(C)(C)C)C(=O)N1CCC(C(=O)NCC(=O)Nc2ccc(C)cc2)CC1,inactive: -4.04%
12,Cc1ccc2nc(-c3ccc(O)c(O)c3)cn2c1,inconclusive: 137%
13,COc1ccc(C(=O)Nc2cccc3nc(C)ccc23)cc1OC,inactive: 12.2%
14,N#Cc1ccc(-c2ccc(OCC(=O)NCCCN3CCCC3=O)cc2)cc1,inconclusive: 52.6%
15,CC(CNCC1CCCO1)COc1cccc2ccccc12 (stereo not given),inconclusive: 32.2%
16,O=c1[nH]sc2ccccc12,inconclusive: 82.3%
17,COc1cc(/C=C2\SC(=S)N(NC(=O)c3ccc(O)c(OC)c3)C2=O)ccc1O,inconclusive: 47.8%
18,CCOc1ccc(NC2CCN(C(C)=O)CC2)cc1,inconclusive: 44.1%
19,CCN(CC)C(=O)C1=C(C)N(Cc2ccc(F)cc2)C(=O)C(CC(=O)NCc2ccco2)C1 (stereo not given),inactive: 13.8%
20,Oc1c(C=Nc2ccc(Cl)cn2)sc2ccccc12,inactive: 8.33%
21,Nc1ccc2nc(N3CCOCC3)sc2c1,inconclusive: 131%
22,O=c1c(-c2ccc(Cl)cc2)c[nH]n1-c1ccccc1,inconclusive: 35.4%
23,O=C(O)c1cccc(N2CCCC2)c1,inactive: 15.6%

row,Compound,inhibition
1,CC1c2ccccc2SC(CCCN(C)C)c2ccccc21 (stereo not given),inactive: 5.84%
2,c1ccc(-c2csc(Nc3ccccn3)n2)cc1,inactive: 13.5%
3,Cc1ccc(S(=O)(=O)N2CCOCC2)cc1NC(=O)CN1CCN(c2ccc(O)cc2)CC1,inconclusive: 94%
4,COc1ccc(N2CSC3=C(C#N)C(c4cc(OC)ccc4OC)CC(=O)N3C2)c(OC)c1 (stereo not given),inconclusive: 36.7%
5,O=C(Nc1ccc(O)cc1)/C(=C\c1ccncc1)NC(=O)c1ccccc1,inconclusive: 63.1%
6,Clc1ccc(CN2CCC(Cc3ccccc3)CC2)cc1,inactive: 14.2%
7,NC1=NC(=O)/C(=C/c2cccs2)S1,inactive: 4.92%
8,COCCCn1c(=O)c2ccccc2n2c(=S)[nH]nc12,inconclusive: 103%
9,O=C(Nc1ccc(S(=O)(=O)Nc2ncccn2)cc1)c1ccccc1,inactive: 2.75%
10,O=C(COC(=O)c1cc(F)c(F)cc1Cl)NC1CCCCCC1,inactive: -27.4%
11,CCn1cnc2cc(NCc3cccc(OC)c3O)ccc21,inconclusive: 33.9%
12,CCc1ccc2nc3n[nH]c(N)c3cc2c1,inconclusive: 43.4%
13,COc1ccc(C)cc1NC(=O)CNC(c1ccccc1)c1ccccc1,inactive: 1.89%
14,COc1cccc2c(N/N=C/c3ccc(O)c(O)c3)cc(C)nc12,inactive: 27.1%
15,O=[N+]([O-])c1ccc(N2CCN(c3ccc(O)cc3)CC2)cn1,inconclusive: 75.7%
16,CCN(CC)CCOc1cccc(C(C)C)c1,inconclusive: 34.3%
17,COc1ccccc1CN1CCc2c([nH]c3ccccc23)C1,inconclusive: 34.9%
18,S=c1[nH]nc(-c2ccco2)n1Cc1ccccc1,inconclusive: 32.8%
19,O=C(N/N=C/c1ccc(O)cc1O)/C(=C/c1ccccc1)CCO,inconclusive: 82.4%
20,CCN(CC)c1ccc(NC(=O)CSc2nc3nc(C)cc(C)c3c(=O)[nH]2)cc1,inconclusive: 63.3%
21,Cc1nn(CC(=O)NCC(C)c2ccccc2)c(=O)c2cc3occc3n12 (stereo not given),inactive: 10%
22,CCCCOc1ccc(C(=O)N/C(=C/C=C/c2ccccc2)C(=O)NCCCO)cc1,inactive: 12.1%
23,CCOC(=O)c1ccc(N2C(=O)CC(Nc3ccc(O)cc3)C2=O)cc1 (stereo not given),inconclusive: 42.1%

row,Compound,inhibition
1,COc1cc(/C=C2\CCC/C(=C\c3ccc(O)c(OC)c3)C2=O)ccc1O,inconclusive: 33.3%
2,CN(C)c1ccc2nc3ccc(=[N+](C)C)cc-3sc2c1,inconclusive: 74.7%
3,C#CCOCCOCCOCCNc1nc(N2CCN(C(=O)CCCCCCCCCCNC(=O)[C@@H](CCC(=O)O)n3cc(CCCCCN)nn3)CC2)nc(N2CCN(C(=O)CCCCCCCCCCNC(=O)[C@H]([C@@H](C)CC)n3cc(CCCCCN)nn3)CC2)n1,inconclusive: 50.5%
4,CC(CCC(C)C(C)(C)C)[C@@H]1CC[C@H]2C3C[C@H](OS(O)(=S)=S)[C@H]4C[C@H](OS(O)(=S)=S)[C@@H](OS(O)(=S)=S)C[C@]4(C)[C@H]3CC[C@]12C (stereo not given in full) (tested in a mixture with another compound),inconclusive: 115%
5,O=C(/C=C/c1ccco1)Nc1cccc(C(=O)Nc2ccccc2C(=O)O)c1,inconclusive: 35%
6,OCCCNCc1ccc(Cl)cc1Cl,inactive: -1.18%
7,Cc1ccccc1Nc1c(-c2ccccn2)nc2ccccn12,inconclusive: 47%
8,Cn1c(=O)[nH]c(=O)c2c1nc(N)n2Cc1ccccc1,inactive: 5.45%
9,CN(C(=O)c1cccc(NC(=O)Cc2ccc(NC(=O)C3CCN(C(=O)C4CC4)CC3)cc2)c1)C1CCC1,inactive: 6.53%
10,Cc1ccc(O)c(NC(=O)c2cc(-c3cccs3)on2)c1,inactive: 5.43%
11,O=C(/C=C\c1ccccc1)NCC(=O)N/N=C/c1ccc(O)cc1O,inconclusive: 61.4%
12,O=C(CSc1n[nH]c(-c2ccccc2)n1)c1ccc(O)c(O)c1,inconclusive: 52.1%
13,COc1ccc(NC(=O)c2ccc3c(c2)C(=O)N(Cc2cccnc2)C3=O)cc1,inactive: 9.43%
14,COc1ccc(OCc2nn3c(Cn4cnc5ccccc54)nnc3s2)cc1,inactive: 19.9%
15,CCN(CC)C(=O)Cn1cc(C(=O)C(=O)NCCc2c[nH]c3ccccc23)c2ccccc21,inactive: 7.03%
16,COc1ccc(NC2CCCN(C(=O)CCOc3ccccc3)C2)cc1 (stereo not given),inconclusive: 43.2%
17,CN(Cc1ccccc1)C(=O)CCC1CCN(C(=O)c2ccccc2C(F)(F)F)CC1,inactive: -5.88%
18,COc1ccc(CNC(=O)CCCn2nc([N+](=O)[O-])cc2C)cc1,inactive: 9%
19,O=C(c1cccc(-c2ccc(O)cc2)c1)N1CCOCC1,inconclusive: 67.6%
20,FC(F)(F)c1cccc(CNC2c3ccccc3-c3ccccc32)c1,inconclusive: 34.6%
21,N#C/C(=C\c1cc(O)c(O)c(O)c1)C(N)=O,inconclusive: 34.7%
